Test results taken from publication PMC3827261.
Results are given in words; binding and its absence hold for the method and conditions named. Binding seen in cells or lysates may run through a third protein. Some results given as binding are weak or reduced against the parent protein; the word gives no strength. For some assays here: Tags and fused reporters may be left off the sequences shown. Each block holds one molecule with its values, some of them ahead of it.

Protein sequences, listed by entry. Tags and fused reporters are not part of them.
UniProt Q96LC9: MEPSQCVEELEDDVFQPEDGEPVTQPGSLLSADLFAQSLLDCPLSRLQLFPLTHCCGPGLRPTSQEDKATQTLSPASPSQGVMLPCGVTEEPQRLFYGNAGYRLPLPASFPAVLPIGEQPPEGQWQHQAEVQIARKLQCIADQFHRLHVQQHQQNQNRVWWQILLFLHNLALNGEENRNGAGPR

Assays:
[1] = target: HER2 (human (endogenous in SK-BR3, BT-474, MDA-MB-453)) (UniProt P04626); experiment: co-IP; IP with HER2 antibody (control rabbit IgG) from whole cell lysates in RIPA buffer, 4°C overnight, protein A-agarose, immunoblot; SK-BR3 and BT-474; MDA-MB-453 with or without heregulin (100 ng/mL, 30 min) or lapatinib (10 µM, 2 hrs)
[2] = target: HER2 (human (endogenous in SK-BR3, BT-474, MDA-MB-453)) (UniProt P04626); experiment: co-IP; HER2 immunoprecipitated from equal amounts of mitochondrial (ME) and non-mitochondrial extracts (NME) of BT-474 cells, immunoblot
[3] = target: HER2 (human (endogenous in SK-BR3, BT-474, MDA-MB-453)) (UniProt P04626); experiment: co-IP; MDA-MB-453 cells transfected with WT-PUMA or TM-PUMA; IP with HER2 antibody from whole cell lysate, immunoblot

Molecule: Bmf (from UniProt Q96LC9 1-184)
binding [1]: no binding

B1: p53 upregulated modulator of apoptosis (PUMA) (protein, UniProt Q9BXH1 1-193)
chain: MARARQEGSSPEPVEGLARDGPRPFPLGRLVPSAVSCGLCEPGLAAAPAAPTLLPAAYLCAPTAPPAVTAALGGSRWPGGPRSRPRGPRPDGPQPSLSLAEQHLESPVPSAPGALAGGPTQAAPGVRGEEEQWAREIGAQLRRMADDLNAQYERRRQEEQQRHRPSPWRVLYNLIMGLLPLPRGHRAPEMEPN
binding [1]: binds
binding [2]: binds

Other lines, results leading:

binding [3]: binds
B2: HA-tagged wild-type PUMA (protein, UniProt Q9BXH1 1-193)
chain: B1 chain

binding [1]: no binding
B3: Bad (protein, UniProt Q92934 1-168)
chain: MFQIPEFEPSEQEDSSSAERGLGPSPAGDGPSGSGKHHRQAPGLLWDASHQQEQPTSSSHHGGAGAVEIRSRHSSYPAGTEDDEGMGEEPSPFRGRSRSAPPNLWAAQRYGRELRRMSDEFVDSFKKGLPRPKSAGTATQMRQSSSWTRVFQSWWDRNLGRGSSAPSQ
